{"source": "PubChem BioAssay AID662", "about": "(National Center for Advancing Translational Sciences (NCATS), 2007)", "note": "Hit rate of the full screen: of about 71,000 compounds, about 1,800 (2.5%) were called active. The shares of active, inactive and inconclusive entries below differ from those in the screen. Calls come from the whole dose curve; as a rule, active = well fitted activation curve with a large enough effect in the signal ratio, with a control signal flat (not every such curve was filed as active); inconclusive = small, poorly fitted or top-dose-only effect, or effect the other way, or a change in a side signal; inactive = flat fitted curve, though single readings scatter; the % refers to the signal ratio. Where the call is inconclusive, the potency comes from a doubtful curve fit. Potency is the fitted concentration of half-maximal effect; tags give direction and shape of the fitted curve.", "data": [{"assay": "Cell signaling CRE-BLA (Fsk stim); for activity change, negative = inhibition: % of control where 0% means no effect", "settings": "CHO CRE-bla reporter (cAMP response element driving beta-lactamase), forskolin EC10, beta-lactamase ratio; activity change, negative = inhibition: at 38.2 µM (top of the series) unless noted", "in_short": "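CRE-bla CHO cells stimulated with EC10 NKH 477 (water-soluble forskolin) and compound titrations, 3 h at 37C; beta-lactamase read with CCF4 after 2 h at room temperature. Activity from 460/530 nm emission ratio, AC50 values for positive or negative modulation.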", "values": [{"smiles": "O=C(Oc1ccc(-c2nc(-c3ccccn3)no2)cc1)c1ccccc1", "activity change, negative = inhibition": "inconclusive: 15%"}, {"smiles": "CCOc1cccc(C(=O)Nc2cccc(-c3nc4ncccc4o3)c2C)c1", "activity change, negative = inhibition": "inconclusive: -16.9%"}, {"smiles": "Cc1cccc2cc(C#N)c(SCCN3CCCCC3)nc12", "activity change, negative = inhibition": "inconclusive: 21.3%"}, {"smiles": "CC(C)C1Cc2[nH]c(=O)c(C(=O)O)cc2CO1", "note": "(stereo not drawn)", "activity change, negative = inhibition": "inconclusive: -19.4%"}, {"smiles": "CC1CCCCC1NS(=O)(=O)c1ccc(S(=O)(=O)N2CCN(CCC#N)CC2)cc1", "note": "(stereo not drawn)", "Potency": "inconclusive: 10 µM [rising, partial curve]"}, {"smiles": "COc1ccc(C2CC(=O)c3c([nH]c(C(=O)OC(C)C)c3C)C2)cc1OC", "note": "(stereo not drawn)", "activity change, negative = inhibition": "inconclusive: -2.74%"}, {"smiles": "COc1ccc(C2N=C(Nc3ccc(C)cc3)Nc3nc(C)cc(=O)n32)cc1", "note": "(stereo not drawn)", "activity change, negative = inhibition": "inconclusive: 29%"}, {"smiles": "CCOc1ccc(-n2c(C)nc3c(cnn3-c3ccc(Cl)cc3)c2=O)cc1", "activity change, negative = inhibition": "inconclusive: -10.4%"}, {"smiles": "CN(C)c1ncc2nc(CCc3ccccc3)c(=O)n(-c3ccccc3)c2n1", "Potency": "active: 5.01 µM"}, {"smiles": "COc1ccc(Nc2nc(CC(C)=O)ns2)cc1OC", "Potency": "inconclusive: 10 µM [rising, single point]"}, {"smiles": "CCCCCn1c(SCC#N)nc2cc(C(=O)NC3CCCCC3)ccc2c1=O", "activity change, negative = inhibition": "inconclusive: 0.385%"}, {"smiles": "CC(=O)OCCNC(=O)c1cc2ccccc2oc1=O", "activity change, negative = inhibition": "inconclusive: 12.1%"}, {"smiles": "O=C(Nc1ccc2oc(-c3ccccc3)nc2c1)c1ccc2c(c1)OCCO2", "activity change, negative = inhibition": "inactive"}, {"smiles": "COc1cccc(Cn2c(=O)c(C)nc3cnc(Oc4cccc(Cl)c4)nc32)c1", "Potency": "inconclusive: 6.31 µM [rising, partial curve]"}, {"smiles": "CO[C@H]1C[C@@H](O[C@@H]2[C@H](C)[C@H](O[C@@H]3O[C@@H](C)C[C@@H](N(C)C)[C@@H]3O)[C@H](C)C[C@]3(CO3)C(=O)[C@H](C)[C@H](O)[C@H](C)[C@H](C)OC(=O)[C@@H]2C)O[C@@H](C)[C@H]1O", "activity change, negative = inhibition": "inactive"}, {"smiles": "Fc1ccccc1N1CCN(Cc2nc(-c3ccccc3)no2)CC1", "activity change, negative = inhibition": "inactive"}, {"smiles": "CC(=O)C1=C(O)C(=O)N(CCc2c[nH]c3ccccc23)C1c1cccc(O)c1", "note": "(stereo not drawn)", "activity change, negative = inhibition": "inconclusive: -16.8%"}, {"smiles": "COc1cc(-c2nnc(-c3cccs3)o2)cc(OC)c1OC", "Potency": "active: 2.51 µM"}, {"smiles": "COc1ccc(CCn2c(N)c(S(=O)(=O)c3cccs3)c3nc4ccccc4nc32)cc1OC", "activity change, negative = inhibition": "inconclusive: -4.16%"}, {"smiles": "COc1ccc(-n2c(=O)c(C)nc3cnc(N4CCNCC4)nc32)cc1", "Potency": "active: 12.6 µM"}, {"smiles": "O=C(NCc1ccco1)c1nc2nc(-c3cccs3)cc(C(F)(F)F)n2n1", "activity change, negative = inhibition": "inactive"}, {"smiles": "CCc1c2c(nc3ccccc13)OC(C)C2", "note": "(stereo not drawn)", "activity change, negative = inhibition": "inactive"}, {"smiles": "COc1ccc(N2CCN(C(=O)CC(NC(N)=O)c3cccc(Oc4ccccc4)c3)CC2)cc1", "note": "(stereo not drawn)", "activity change, negative = inhibition": "inconclusive: 5.47%"}, {"smiles": "COc1ccc(Cn2c(C)nc3c(c2=O)c2nc4ccccc4nc2n3Cc2ccco2)cc1", "Potency": "inconclusive: 1 µM [rising, partial curve]"}, {"smiles": "CCOC(=O)CSc1nc2c(sc(=S)n2Cc2ccco2)c(=O)n1-c1ccccc1", "activity change, negative = inhibition": "inconclusive: 13.2%"}, {"smiles": "CCOC(=O)c1[nH]cnc1C(=O)NC1CCCCC1", "Potency": "inconclusive: 10 µM [rising, partial curve]"}, {"smiles": "COC(=O)C1=C(NC(=O)c2ccc(C)c(C)c2)CCS1", "activity change, negative = inhibition": "inconclusive: 5.98%"}, {"smiles": "CCOC(=O)c1oc2cccc(O)c2c1CN1CCOCC1", "Potency": "active: 12.6 µM"}, {"smiles": "O=P(c1ccccc1)(c1ccccc1)C(O)c1ccncc1", "note": "(stereo not drawn)", "activity change, negative = inhibition": "inactive"}, {"smiles": "CCc1c(-c2ccccc2)nc2nc(C)c(C)nn12", "Potency": "inconclusive: 10 µM [rising, single point]"}, {"smiles": "O=C(Nc1nnc(COc2ccccc2)s1)c1ccco1", "activity change, negative = inhibition": "inconclusive: 18%"}, {"smiles": "O=C(Nn1c(-c2ccccc2)nc2ccccc2c1=O)c1ccco1", "activity change, negative = inhibition": "inconclusive: -14.8%"}, {"smiles": "CC1=C(C)CC(C(=O)c2ccccc2)C(C(=O)O)C1", "note": "(stereo not drawn)", "activity change, negative = inhibition": "inconclusive: -25.6%"}, {"smiles": "COc1ccccc1N1CCN(c2nc3ccccc3nc2C(C#N)C(=O)OC(C)C)CC1", "note": "(stereo not drawn)", "activity change, negative = inhibition": "inconclusive: 6.95%"}, {"smiles": "Cc1ccccc1CS(=O)(=O)Cc1ccc(C(=O)N2CCOCC2)o1", "activity change, negative = inhibition": "inactive"}, {"smiles": "COc1ccc(Cc2nc(-c3ccc(Cl)cc3)no2)cc1", "Potency": "inconclusive: 0.398 µM [rising, full curve, poor fit]"}, {"smiles": "COC(=O)[C@@]1(Cc2ccc(F)cc2)[C@H]2c3cc(C(=O)N4CCCC4)n(C[C@H](O)CO)c3C[C@H]2CN1C(=O)c1ccccc1", "activity change, negative = inhibition": "inactive"}, {"smiles": "COc1ccc(Br)cc1C1CC(=O)N2CN(Cc3ccccc3)CSC2=C1C#N", "note": "(stereo not drawn)", "Potency": "inconclusive: 3.16 µM [rising, single point]"}, {"smiles": "O=C(NC1CCCC1)C1CCN(S(=O)(=O)c2cccc3cccnc23)CC1", "activity change, negative = inhibition": "inconclusive: -9.41%"}, {"smiles": "CCN(CC)C(=O)c1cc2c(=O)n3cccc(C)c3nc2n1C", "Potency": "inconclusive: 15.8 µM [rising, partial curve, poor fit]"}, {"smiles": "Cc1sc2ncnc(Sc3nnnn3-c3ccccc3)c2c1C", "Potency": "inconclusive: 2.51 µM [falling, partial curve]"}, {"smiles": "Cc1csc(NC(=O)c2cccc(S(=O)(=O)N3CCCCC3)c2)n1", "activity change, negative = inhibition": "inconclusive: 22.6%"}, {"smiles": "Cc1cccc(-n2c(=O)[nH]c3c(C(N)=O)nc(-c4ccccc4Cl)nc32)c1", "activity change, negative = inhibition": "inactive"}, {"smiles": "CCCc1[nH]nc2c1C(c1cn[nH]c1-c1ccc(F)cc1)C(C#N)=C(N)O2", "note": "(stereo not drawn)", "activity change, negative = inhibition": "inconclusive: -23.6%"}, {"smiles": "C1=Nc2c(NCc3ccccc3)ncnc2Oc2ccccc21", "Potency": "inconclusive: 10 µM [rising, partial curve]"}, {"smiles": "Cc1nc2oc(C(=O)c3ccccc3)c(N)c2c2c1COC(C)(C)C2", "activity change, negative = inhibition": "inactive"}, {"smiles": "CC(C)CN(CC(C)C)c1nc(N)c(C#N)c(CC#N)c1C#N", "Potency": "inconclusive: 12.6 µM [rising, single point]"}, {"smiles": "Cc1ccccc1OCCn1nc(C(=O)O)c2ccccc2c1=O", "Potency": "inconclusive: 25.1 µM [rising, single point]"}, {"smiles": "O=C(CSc1nnc(-c2ccc(Cl)s2)o1)N1CCc2ccccc21", "activity change, negative = inhibition": "inactive"}, {"smiles": "Cc1ccc(-c2noc(CSc3nnnn3C3CCCCC3)n2)cc1", "activity change, negative = inhibition": "inactive"}, {"smiles": "CCOC(=O)CSc1nnc(CNC(=O)c2ccc(OC)cc2)n1Cc1ccccc1", "activity change, negative = inhibition": "inactive"}, {"smiles": "COc1cccc(-c2cc(C(=O)Nc3cc(C)on3)no2)c1", "activity change, negative = inhibition": "inactive"}, {"smiles": "O=C(CCCc1nc(-c2ccccc2)no1)N1CCOCC1", "activity change, negative = inhibition": "inactive"}, {"smiles": "C(=N\\n1cnnc1)/c1cccc2ccccc12", "Potency": "inconclusive: 10 µM [rising, single point]"}, {"smiles": "COC(=O)c1ccc(C(NC(=O)OCc2ccccc2)/C(C)=C/[C@@H](C)C(=O)NCc2nc3ccccc3s2)cc1", "note": "(stereo partly drawn)", "activity change, negative = inhibition": "inactive"}, {"smiles": "O=C(NCC(c1cccs1)N1CCOCC1)c1ccc(Cl)s1", "note": "(stereo not drawn)", "activity change, negative = inhibition": "inactive"}, {"smiles": "Cc1cc(C)cc(OCc2ccc(C(=O)O)o2)c1", "activity change, negative = inhibition": "inconclusive: -7.49%"}, {"smiles": "Cc1cccc(N=c2oc3cc(O)ccc3cc2C(N)=O)c1", "Potency": "active: 12.6 µM"}, {"smiles": "CCCc1nc(SCC(=O)N2CCCc3ccccc32)c2c(=O)n(C)c(=O)n(C)c2n1", "Potency": "inconclusive: 25.1 µM [falling, single point]"}, {"smiles": "Cc1ccc(OCc2nn3c(-c4n[nH]c5c4CCC5)nnc3s2)cc1", "Potency": "inconclusive: 15.8 µM [rising, single point]"}, {"smiles": "N#Cc1c2c(c(NCc3ccco3)n3c1nc1ccccc13)CCC2", "Potency": "inconclusive: 7.94 µM [rising, partial curve]"}, {"smiles": "COc1cc(-c2noc(CCCC(=O)NCc3ccco3)n2)cc(OC)c1OC", "Potency": "inconclusive: 15.8 µM [rising, single point]"}, {"smiles": "O=C1c2ccccc2C(=O)N1c1cccc(-c2nc3ccccc3o2)c1", "Potency": "active: 3.16 µM"}, {"smiles": "CCOc1ccc(C2NC(=O)c3ccccc3O2)cc1", "note": "(stereo not drawn)", "activity change, negative = inhibition": "inconclusive: -2.32%"}, {"smiles": "O=C(Cn1nnc(-c2ccccc2)n1)OC1CCOC1=O", "note": "(stereo not drawn)", "Potency": "inconclusive: 2.51 µM [falling, single point]"}, {"smiles": "CCn1nnc(NC(=O)c2cccnc2)n1", "activity change, negative = inhibition": "inconclusive: 1.88%"}, {"smiles": "CC(=O)c1c(C)cc(C)c(CSc2nnc(-c3ccco3)o2)c1C", "activity change, negative = inhibition": "inconclusive: 24.2%"}, {"smiles": "CCc1nnc(NC(=O)c2ccc(OC)cc2OC)s1", "activity change, negative = inhibition": "inconclusive: 28.5%"}, {"smiles": "Cc1cnc(NC(=O)c2ccc(-c3nc4ccccc4s3)o2)s1", "Potency": "inconclusive: 25.1 µM [rising, single point]"}, {"smiles": "COc1ccc(-c2cn[nH]c2N)c(OC)c1", "activity change, negative = inhibition": "inconclusive: -2.51%"}, {"smiles": "CCOc1ccc(-c2[nH]ncc2Oc2ccccc2OC)c(O)c1", "activity change, negative = inhibition": "inactive"}, {"smiles": "CN(C)S(=O)(=O)N1CCN(CC(O)COc2ccc(C(=O)c3ccccc3)cc2)CC1", "note": "(stereo not drawn)", "activity change, negative = inhibition": "inactive"}, {"smiles": "CCOC(=O)Cc1nnc(NC(=O)C(CC)Sc2nnc3c4ccccc4n(C)c3n2)s1", "note": "(stereo not drawn)", "Potency": "active: 12.6 µM"}, {"smiles": "CCNc1ncc2nc(-c3cccs3)c(=O)n(-c3ccc(OC)cc3)c2n1", "Potency": "inconclusive: 1.58 µM [rising, full curve]"}, {"smiles": "Cc1[nH]c2ccccc2c1C(=O)CN1CCCC1", "Potency": "inconclusive: 25.1 µM [falling, single point]"}, {"smiles": "O=C(NCc1cccc(C(F)(F)F)c1)C1CCCN(c2ncccn2)C1", "note": "(stereo not drawn)", "activity change, negative = inhibition": "inactive"}, {"smiles": "CCCn1c(-c2ccc(F)cc2)nc2c(NCCCN(C)C)nc(C)nc21", "activity change, negative = inhibition": "inactive"}, {"smiles": "O=C(c1cc2ccccc2oc1=O)N(Cc1ccco1)CC1CCCO1", "note": "(stereo not drawn)", "activity change, negative = inhibition": "inactive"}, {"smiles": "NCc1nnn(Cc2ccccc2)c1N", "activity change, negative = inhibition": "inactive: -4.03% [at 7.6 µM]"}, {"smiles": "CCCCN(C(=O)c1ccc(Cl)cc1)C1CC2CCC(C1)N2C", "note": "(stereo not drawn)", "activity change, negative = inhibition": "inactive"}, {"smiles": "CCN1C(=O)c2cccc3c(S(=O)(=O)NCCCN4CCOCC4)ccc1c23", "activity change, negative = inhibition": "inconclusive: -12.3%"}, {"smiles": "CCOCCCNC(=O)C(c1ccc(Cl)cc1)N1CCC2(CC1)OCCO2", "note": "(stereo not drawn)", "activity change, negative = inhibition": "inconclusive: -3.71%"}, {"smiles": "Cc1nc2c(ccc3nc(NC(=O)c4ccc5c(c4)OCCO5)sc32)s1", "activity change, negative = inhibition": "inconclusive: 3.18% [cytotoxic]"}]}]}
